Data as given in PubChem BioAssay AID686970 (National Center for Advancing Translational Sciences (NCATS), 2013).
In all, about 360,000 compounds went through this assay and about 6,000 (1.7%) were called active. Inconclusive results, whose numbers are uncertain, are shown with a selection of clear calls. The call rests on the fitted dose curve; in most records, active means well fitted cell-killing curve with a large enough effect; inconclusive means small, poorly fitted or top-dose-only effect, or effect the other way; inactive means flat fitted curve, though single readings scatter. Potencies of inconclusive entries are left out as doubtful fits.

Experiment: qHTS for induction of synthetic lethality in tumor cells producing 2HG: qHTS for the HT-1080-NT fibrosarcoma cell line;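 further: NT is the 2HG producing partner of a matched IDH1 knockdown line; nearly all actives have a fitted effect of over 55% in size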;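 on activity, negative = less viability: 0% = DMSO-treated cells and -100% = media-only wells without cells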
Conditions: HT-1080-NT fibrosarcoma viability, CellTiter-Glo ATP luminescence, 48 h; activity, negative = less viability: at 46.1 µM (top of the series) unless noted
How it was run: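 Viability by CellTiter-Glo luminescence after 48 h compound exposure at 37C of HT-1080-NT cells (750/well, RPMI, 5% FBS). % activity scaled between DMSO wells and medium-only wells, then curve-fitted and categorized by curve class.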
Potency means the concentration at half of the fitted maximal effect; tags describe the fitted curve by direction and shape.

With `O=C1NC(Cc2ccccc2)c2nc3ccccc3c(=O)n2-c2cc3ccccc3cc21` (stereo not drawn) as the compound, how does the Potency read?
The Potency was inconclusive [cytotoxic, partial curve].

Which Potency does the source give for `Cc1cccc(Oc2nc(-c3ccccn3)nc3ccccc23)c1` here?
Its Potency is inconclusive [cytotoxic, single point].

Which Potency does the source give for `CS(=O)(=O)c1ccc(Nc2nc(C(N)Cc3ccc(Cl)cc3)cs2)cc1` (stereo not drawn) here?
The Potency was active: 14.6 µM.

Which Potency does the source give for `C[C@@H]1CC[C@H]2C(=O)N3[C@@H](CC[C@@H](C)[C@@H]3c3ccc(Br)cc3)C(=O)N2[C@H]1c1ccc(Br)cc1` here?
The Potency was inconclusive [cytotoxic, single point].

For `COc1ccc(OC)c(C2C=C(c3ccc(C)c(C)c3)Nc3nnnn32)c1` (stereo not drawn), which Potency is on record?
The Potency was inconclusive [cytotoxic, full curve].

Which “activity, negative = less viability” value does the source give for `CCOC1=C2CN(S(=O)(=O)c3ccc(C)cc3)[C@H](c3ccccc3)C[C@@H]2N(S(=O)(=O)c2ccccc2C)[C@H](c2ccccc2)C1` here?
Its value is inactive: 16.6%.

Which Potency does the source give for `O=c1c2[nH]c3cccc(Cl)c3c2ncn1Cc1ccncc1` here?
The Potency was inconclusive [cytotoxic, single point].

With `COc1ccc(C(=O)/C=C/C(=O)N(Cc2ccccc2OC)C(C(=O)NC2CCCCC2)c2ccncc2)c(O)c1` (stereo not drawn) as the compound, how does the Potency read?
Its Potency is inconclusive [cytotoxic, single point].

With `N#CC1=C(N)Oc2cc3ccccc3cc2C1c1cccnc1` (stereo not drawn) as the compound, how does the Potency read?
Its Potency is active: 6.51 µM.

With `O=C(c1ccc(S(=O)(=O)c2cccc(Cl)c2)c([N+](=O)[O-])c1)N1CCN(c2ccccn2)CC1` as the compound, how does the Potency read?
Its Potency is active: 9.2 µM.

For `Fc1ccccc1NC(=S)N1CCOCC1`, which Potency is on record?
The Potency was inconclusive [rising, single point].

With `CCOC(=O)c1ccc(Nc2nnc(C)c3ccccc23)cc1` as the compound, how does the Potency read?
The Potency was inconclusive [cytotoxic, single point].

Which Potency does the source give for `Cc1ccc(Cn2c(C(CO)Nc3nc(-c4ccc(F)cc4)cs3)nc3ccccc32)cc1` (stereo not drawn) here?
Its Potency is inconclusive [cytotoxic, single point].

Which Potency does the source give for `Cc1c(C(=O)NCc2ccccc2CN2CCCC2)oc2c(F)cccc12` here?
Its Potency is inconclusive [cytotoxic, single point].

Which Potency does the source give for `CCCn1c(CC)nc([N+](=O)[O-])c1S(=O)(=O)c1ccccc1` here?
Its Potency is inconclusive [cytotoxic, single point].

With `CC1(Cc2ccc(Cl)s2)C(=O)Nc2c(Cl)ccc(Cl)c21` (stereo not drawn) as the compound, how does the Potency read?
Its Potency is inconclusive [cytotoxic, single point].

Which “activity, negative = less viability” value does the source give for `CCn1c(=O)c(C(=O)NCCc2ccc(OC)c(OC)c2)c(O)c2ccccc21` here?
The value was inactive: -6.51%.

For `COc1ccc(/C=N/NC(=O)CCn2c3ccccc3c3ccccc32)cc1O`, which Potency is on record?
Its Potency is active: 1.41 µM.

With `CCOC(=O)N1CCN(C(=O)C[C@@H]2C[C@@]3(C(=O)OCC)CCCC=C3N(CCC3=CCCCC3)C2=O)CC1` as the compound, how does the Potency read?
The Potency was inconclusive [cytotoxic, single point].

For `Cc1nc(SCc2cccc(F)c2)c2oc3ccccc3c2n1`, which “activity, negative = less viability” value is on record?
Its value is inactive: -12.4%.

With `COc1ccc(-c2[nH]c(-c3ccc(SC)cc3)nc2SCC(=O)Nc2nccs2)cc1` as the compound, how does the Potency read?
The Potency was inconclusive [cytotoxic, single point].

Which “activity, negative = less viability” value does the source give for `O=C(Nc1ccc(Cl)cc1)OCCN1CCOCC1` here?
Its value is inactive: 9.88%.

Which Potency does the source give for `Cc1ccc(C)c(S(=O)(=O)Nc2cc(SCC(=O)O)c(O)c3ccccc23)c1` here?
The Potency was active: 23.1 µM.

With `O=C1CSC(c2ccncc2)N1Cc1ccco1` (stereo not drawn) as the compound, how does the “activity, negative = less viability” value read?
The value was inactive: 14%.

For `O=C1/C(=N\S(=O)(=O)c2cccs2)C([n+]2ccccc2)=C([O-])c2ccccc21`, which activity, negative = less viability is on record?
Its activity, negative = less viability is inconclusive: 1.71% [cytotoxic].

Which Potency does the source give for `COCCNC(=O)c1c(CS(=O)(=O)c2ccccc2)noc1C(=O)NCc1ccccc1` here?
Its Potency is inconclusive [cytotoxic, single point].

Which Potency does the source give for `CC(C)C[C@@H](CN1CCCC1CN1C(=S)NC[C@@H]1Cc1ccc(O)cc1)N1C[C@H](Cc2ccc(O)cc2)N(CC2CCCCCC2)C1=S` (stereo partly drawn) here?
The Potency was active: 23.1 µM.

For `N#C/C(=C\c1ccc(C(=O)O)cc1)c1nc2sc3c(c2c(=O)[nH]1)CCCC3`, which Potency is on record?
Its Potency is inconclusive [cytotoxic, single point].

For `CC(=O)c1cccc(NC(=O)C2(C)Cc3c(-c4cccc(C(N)=O)c4)ccnc3O2)c1` (stereo not drawn), which Potency is on record?
Its Potency is inconclusive [cytotoxic, single point].

With `O=C(Nc1nnc(-c2ccc(Cl)cc2)o1)Nc1ccccc1F` as the compound, how does the “activity, negative = less viability” value read?
The value was inactive: 17.2%.

For `O=C(CSc1nnc2scc(-c3ccccc3)n12)Nc1nsc(-c2ccccc2)n1`, which activity, negative = less viability is on record?
The activity, negative = less viability was inactive: 3.86% [at 9.24 µM].

With `CCCCC(C(=O)NC(C)(C)C)N(Cc1ccccc1Cl)C(=O)c1snc(C(N)=O)c1N` (stereo not drawn) as the compound, how does the “activity, negative = less viability” value read?
Its value is inactive: -8.23%.

For `CCOC(=O)c1nnn(CC(=O)N2N=C(c3cc(C)ccc3C)CC2c2ccc(OC)cc2)c1C(=O)OCC` (stereo not drawn), which “activity, negative = less viability” value is on record?
Its value is inactive: -12.9%.

For `CCN1CCN(Cc2ccc(NC(=O)c3cc(NC(=O)c4cnn(-c5ccccc5)c4N)cc(OC)c3)cc2C(F)(F)F)CC1`, which Potency is on record?
The Potency was inconclusive [cytotoxic, single point].

With `CC(=O)NC(c1ccccc1)c1nc(-c2cccc(F)c2)cs1` (stereo not drawn) as the compound, how does the “activity, negative = less viability” value read?
The value was inactive: 7.15%.

With `CC1CCN(c2c(NCc3ccc(C(=O)N(C)C4CCCCC4)cc3)c(=O)c2=O)CC1` as the compound, how does the “activity, negative = less viability” value read?
Its value is inactive: -0.016%.

Which Potency does the source give for `Cc1c(/C=N/NC(=O)c2ccccc2O)c2ccccn2c1C(=O)c1ccc(F)cc1` here?
The Potency was inconclusive [cytotoxic, single point].

With `COc1ccc(C(CNC(=O)Cc2ccc(-c3ccccc3)cc2)N(C)C)cc1` (stereo not drawn) as the compound, how does the Potency read?
Its Potency is active: 18.4 µM.

For `CCCc1nc2c3ccccc3ccn2c1CC1CCCCC1`, which Potency is on record?
The Potency was inconclusive [cytotoxic, single point].

Which activity, negative = less viability does the source give for `CC(=O)OCC(=O)C1(O)CCC2C3CC(F)C4=CC(=O)CCC4(C)C3C(O)CC21C` (stereo not drawn) here?
Its activity, negative = less viability is inconclusive: 32.2%.

For `COc1ccc(-c2sc3ccccc3c2-c2ccc(O)cc2)cc1`, which Potency is on record?
The Potency was inconclusive [cytotoxic, single point].

For `COc1ccc(NC(=O)CSc2ccc3c4c(cccc24)C(=O)c2ccccc2-3)cc1`, which Potency is on record?
The Potency was inconclusive [cytotoxic, single point].

With `CC(=O)Nc1cccc(OCC(O)Cn2cnc3ccccc32)c1` (stereo not drawn) as the compound, how does the “activity, negative = less viability” value read?
Its value is inactive: 0.348%.
